For some of these results: Shown are results outside the selection of strong results, which stands elsewhere. Only a part is listed here, and it is no random draw.
Tests used:
[1] = target: Leukocyte tyrosine kinase receptor (Homo sapiens) (UniProt P29376); conditions: at 1 µM;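 also: each value is the mean inhibition of LTK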
[2] = target: Tyrosine-protein kinase Lyn (Homo sapiens) (UniProt P07948); conditions: at 0.1 µM
[3] = target: Tyrosine-protein kinase Lyn (Homo sapiens) (UniProt P07948); conditions: at 1 µM
[4] = target: Tyrosine-protein kinase Lyn (Homo sapiens) (UniProt P07948); conditions: at 0.1 µM; remark: listed apart in the source
[5] = target: Tyrosine-protein kinase Lyn (Homo sapiens) (UniProt P07948); conditions: at 1 µM; remark: listed apart in the source
[6] = target: T1, Tyrosine-protein kinase Mer (Homo sapiens) (UniProt Q12866); conditions: at 0.1 µM
T1 sequence (whole entry): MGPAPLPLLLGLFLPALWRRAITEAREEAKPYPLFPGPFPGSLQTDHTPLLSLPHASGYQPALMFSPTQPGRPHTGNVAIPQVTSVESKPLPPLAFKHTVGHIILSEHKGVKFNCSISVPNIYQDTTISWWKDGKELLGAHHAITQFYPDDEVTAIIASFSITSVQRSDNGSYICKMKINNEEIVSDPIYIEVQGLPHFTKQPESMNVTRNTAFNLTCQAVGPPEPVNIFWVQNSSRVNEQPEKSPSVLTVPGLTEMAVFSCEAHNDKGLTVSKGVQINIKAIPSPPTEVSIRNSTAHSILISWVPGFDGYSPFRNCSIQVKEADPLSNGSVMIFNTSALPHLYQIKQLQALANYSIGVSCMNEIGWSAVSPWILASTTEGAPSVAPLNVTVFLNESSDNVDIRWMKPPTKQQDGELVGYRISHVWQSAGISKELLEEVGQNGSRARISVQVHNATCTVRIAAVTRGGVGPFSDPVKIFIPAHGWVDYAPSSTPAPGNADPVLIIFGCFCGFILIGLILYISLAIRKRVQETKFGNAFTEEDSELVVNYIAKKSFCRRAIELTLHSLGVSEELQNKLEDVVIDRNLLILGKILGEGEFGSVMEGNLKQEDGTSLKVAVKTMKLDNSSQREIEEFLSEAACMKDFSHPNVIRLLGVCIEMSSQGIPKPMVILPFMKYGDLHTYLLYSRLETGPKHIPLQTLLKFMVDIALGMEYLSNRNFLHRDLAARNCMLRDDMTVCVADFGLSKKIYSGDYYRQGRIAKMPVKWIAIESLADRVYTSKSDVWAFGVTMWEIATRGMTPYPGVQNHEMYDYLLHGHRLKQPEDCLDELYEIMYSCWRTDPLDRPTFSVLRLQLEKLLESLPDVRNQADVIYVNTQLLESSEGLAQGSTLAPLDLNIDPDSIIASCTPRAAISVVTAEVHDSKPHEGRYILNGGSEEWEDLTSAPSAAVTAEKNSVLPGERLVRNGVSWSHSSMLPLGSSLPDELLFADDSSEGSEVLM

[7] = target: T1, Tyrosine-protein kinase Mer (Homo sapiens); conditions: at 1 µM
[8] = target: Hepatocyte growth factor receptor (Homo sapiens) (UniProt P08581); conditions: at 0.1 µM
[9] = target: Hepatocyte growth factor receptor (Homo sapiens) (UniProt P08581); conditions: at 1 µM
[10] = target: T2, Muscle, skeletal receptor tyrosine-protein kinase (Homo sapiens) (UniProt O15146); conditions: at 0.1 µM
T2 sequence (whole entry): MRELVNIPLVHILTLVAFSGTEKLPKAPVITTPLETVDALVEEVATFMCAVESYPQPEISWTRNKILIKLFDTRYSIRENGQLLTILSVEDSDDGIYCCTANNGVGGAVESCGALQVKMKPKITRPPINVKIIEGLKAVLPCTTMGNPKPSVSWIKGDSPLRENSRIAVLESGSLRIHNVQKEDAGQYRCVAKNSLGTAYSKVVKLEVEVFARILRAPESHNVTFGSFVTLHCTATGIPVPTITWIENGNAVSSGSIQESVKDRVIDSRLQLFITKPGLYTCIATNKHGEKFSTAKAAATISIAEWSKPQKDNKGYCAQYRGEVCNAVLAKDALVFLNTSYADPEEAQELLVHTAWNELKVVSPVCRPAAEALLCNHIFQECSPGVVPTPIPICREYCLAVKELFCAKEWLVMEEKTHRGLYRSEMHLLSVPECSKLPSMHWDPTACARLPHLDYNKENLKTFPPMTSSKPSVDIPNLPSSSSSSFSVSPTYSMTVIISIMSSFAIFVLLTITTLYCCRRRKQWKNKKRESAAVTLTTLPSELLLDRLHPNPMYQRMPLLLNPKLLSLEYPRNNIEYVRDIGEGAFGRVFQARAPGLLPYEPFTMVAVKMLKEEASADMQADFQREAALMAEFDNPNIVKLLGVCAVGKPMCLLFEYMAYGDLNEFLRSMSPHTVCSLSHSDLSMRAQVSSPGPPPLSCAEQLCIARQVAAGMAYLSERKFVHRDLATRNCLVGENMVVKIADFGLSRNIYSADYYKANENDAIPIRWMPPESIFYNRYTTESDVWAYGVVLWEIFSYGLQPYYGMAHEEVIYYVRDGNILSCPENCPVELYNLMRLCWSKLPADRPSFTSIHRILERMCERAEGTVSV

[11] = target: T2, Muscle, skeletal receptor tyrosine-protein kinase (Homo sapiens); conditions: at 1 µM
[12] = target: Platelet-derived growth factor receptor alpha (Homo sapiens) (UniProt P16234); conditions: at 0.1 µM
[13] = target: Platelet-derived growth factor receptor alpha (Homo sapiens) (UniProt P16234); conditions: at 1 µM
[14] = system: Platelet-derived growth factor receptor alpha (Homo sapiens), P16234 [D842V]; conditions: at 0.1 µM
[15] = system: Platelet-derived growth factor receptor alpha (Homo sapiens), P16234 [D842V]; conditions: at 1 µM
[16] = system: Platelet-derived growth factor receptor alpha (Homo sapiens), P16234 [T674I]; conditions: at 0.1 µM
[17] = system: Platelet-derived growth factor receptor alpha (Homo sapiens), P16234 [T674I]; conditions: at 1 µM
[18] = system: Platelet-derived growth factor receptor alpha (Homo sapiens), P16234 [V561D]; conditions: at 0.1 µM
[19] = system: Platelet-derived growth factor receptor alpha (Homo sapiens), P16234 [V561D]; conditions: at 1 µM
[20] = target: Platelet-derived growth factor receptor beta (Homo sapiens) (UniProt P09619); conditions: at 0.1 µM;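 also: reported value is the mean percent inhibition of the kinase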
Chain of UniProt P09619 (P09619 whole entry): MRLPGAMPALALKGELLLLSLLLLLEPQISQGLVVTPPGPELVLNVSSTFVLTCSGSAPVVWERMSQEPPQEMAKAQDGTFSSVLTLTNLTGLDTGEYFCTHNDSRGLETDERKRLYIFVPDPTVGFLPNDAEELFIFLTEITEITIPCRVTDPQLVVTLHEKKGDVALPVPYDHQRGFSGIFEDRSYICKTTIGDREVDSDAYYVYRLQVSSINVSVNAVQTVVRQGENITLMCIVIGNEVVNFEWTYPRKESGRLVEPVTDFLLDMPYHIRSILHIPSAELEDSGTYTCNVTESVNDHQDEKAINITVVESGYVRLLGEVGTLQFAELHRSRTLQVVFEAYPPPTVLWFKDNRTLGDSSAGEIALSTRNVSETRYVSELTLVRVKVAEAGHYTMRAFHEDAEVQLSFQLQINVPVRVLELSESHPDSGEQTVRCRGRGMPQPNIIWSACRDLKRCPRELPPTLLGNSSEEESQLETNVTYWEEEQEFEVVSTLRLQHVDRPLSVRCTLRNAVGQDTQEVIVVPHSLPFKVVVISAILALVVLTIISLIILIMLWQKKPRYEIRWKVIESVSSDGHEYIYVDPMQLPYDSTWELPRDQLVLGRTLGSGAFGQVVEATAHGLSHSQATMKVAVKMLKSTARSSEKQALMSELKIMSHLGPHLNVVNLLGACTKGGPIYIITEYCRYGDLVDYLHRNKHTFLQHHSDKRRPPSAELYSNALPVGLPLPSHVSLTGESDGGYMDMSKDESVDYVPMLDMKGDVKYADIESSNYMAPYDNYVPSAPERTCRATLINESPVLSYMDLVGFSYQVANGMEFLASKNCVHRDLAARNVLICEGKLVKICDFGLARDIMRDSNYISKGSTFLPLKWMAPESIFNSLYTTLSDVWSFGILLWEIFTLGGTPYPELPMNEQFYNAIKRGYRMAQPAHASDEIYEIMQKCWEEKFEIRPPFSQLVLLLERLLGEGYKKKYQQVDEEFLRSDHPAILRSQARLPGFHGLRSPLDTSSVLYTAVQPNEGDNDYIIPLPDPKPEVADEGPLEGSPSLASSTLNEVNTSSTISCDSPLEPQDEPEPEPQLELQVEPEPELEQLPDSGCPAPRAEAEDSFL

Chain of UniProt P29376 (P29376 whole entry): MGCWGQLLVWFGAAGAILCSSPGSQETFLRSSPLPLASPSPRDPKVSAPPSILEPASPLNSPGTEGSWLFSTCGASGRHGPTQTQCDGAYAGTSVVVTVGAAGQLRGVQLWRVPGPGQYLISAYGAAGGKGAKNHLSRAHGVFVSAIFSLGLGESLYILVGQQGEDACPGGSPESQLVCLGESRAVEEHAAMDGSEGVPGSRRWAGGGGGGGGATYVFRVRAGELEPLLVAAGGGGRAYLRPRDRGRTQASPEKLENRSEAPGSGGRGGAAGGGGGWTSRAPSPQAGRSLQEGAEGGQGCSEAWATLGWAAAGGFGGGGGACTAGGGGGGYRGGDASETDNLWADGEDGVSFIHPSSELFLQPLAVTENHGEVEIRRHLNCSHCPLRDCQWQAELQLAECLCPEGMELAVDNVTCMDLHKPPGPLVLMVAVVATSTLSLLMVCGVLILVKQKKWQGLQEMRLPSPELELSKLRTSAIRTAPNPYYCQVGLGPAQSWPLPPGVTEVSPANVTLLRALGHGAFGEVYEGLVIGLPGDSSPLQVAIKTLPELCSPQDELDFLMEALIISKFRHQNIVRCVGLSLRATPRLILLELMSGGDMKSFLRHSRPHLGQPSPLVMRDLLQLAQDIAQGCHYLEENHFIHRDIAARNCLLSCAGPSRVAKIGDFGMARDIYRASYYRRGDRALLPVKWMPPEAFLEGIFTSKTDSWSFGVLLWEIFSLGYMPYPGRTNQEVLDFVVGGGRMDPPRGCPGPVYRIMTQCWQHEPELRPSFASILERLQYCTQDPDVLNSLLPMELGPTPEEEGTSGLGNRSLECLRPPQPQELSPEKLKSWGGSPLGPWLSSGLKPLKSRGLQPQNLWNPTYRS
Chain of UniProt P16234 (P16234 whole entry): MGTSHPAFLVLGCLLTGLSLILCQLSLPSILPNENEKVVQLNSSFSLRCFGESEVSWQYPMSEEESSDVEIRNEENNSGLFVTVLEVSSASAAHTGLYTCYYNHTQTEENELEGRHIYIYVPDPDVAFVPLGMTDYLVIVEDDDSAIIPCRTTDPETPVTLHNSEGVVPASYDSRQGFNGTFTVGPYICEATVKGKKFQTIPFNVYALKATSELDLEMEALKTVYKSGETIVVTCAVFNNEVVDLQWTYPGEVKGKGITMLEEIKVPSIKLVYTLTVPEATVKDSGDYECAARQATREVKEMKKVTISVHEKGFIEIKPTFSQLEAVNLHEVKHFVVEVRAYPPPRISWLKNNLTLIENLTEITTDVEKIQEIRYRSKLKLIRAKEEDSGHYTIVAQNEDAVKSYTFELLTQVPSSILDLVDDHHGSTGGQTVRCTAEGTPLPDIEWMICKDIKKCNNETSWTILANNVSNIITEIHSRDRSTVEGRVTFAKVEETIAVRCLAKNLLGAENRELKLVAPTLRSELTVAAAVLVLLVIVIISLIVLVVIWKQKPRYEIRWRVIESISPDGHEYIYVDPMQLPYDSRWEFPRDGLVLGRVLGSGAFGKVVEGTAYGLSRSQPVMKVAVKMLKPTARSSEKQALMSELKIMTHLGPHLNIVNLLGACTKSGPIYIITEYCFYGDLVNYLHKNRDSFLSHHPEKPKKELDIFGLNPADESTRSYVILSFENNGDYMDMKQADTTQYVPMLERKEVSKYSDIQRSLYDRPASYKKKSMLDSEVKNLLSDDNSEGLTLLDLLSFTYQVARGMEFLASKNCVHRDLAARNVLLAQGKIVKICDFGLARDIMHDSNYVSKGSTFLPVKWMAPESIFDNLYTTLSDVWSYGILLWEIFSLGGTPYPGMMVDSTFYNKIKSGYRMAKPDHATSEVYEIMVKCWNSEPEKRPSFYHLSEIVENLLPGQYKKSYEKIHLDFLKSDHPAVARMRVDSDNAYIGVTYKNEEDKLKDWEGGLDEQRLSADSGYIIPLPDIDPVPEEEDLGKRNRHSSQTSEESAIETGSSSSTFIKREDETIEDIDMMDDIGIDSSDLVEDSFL
Chain of UniProt P08581 (P08581 whole entry): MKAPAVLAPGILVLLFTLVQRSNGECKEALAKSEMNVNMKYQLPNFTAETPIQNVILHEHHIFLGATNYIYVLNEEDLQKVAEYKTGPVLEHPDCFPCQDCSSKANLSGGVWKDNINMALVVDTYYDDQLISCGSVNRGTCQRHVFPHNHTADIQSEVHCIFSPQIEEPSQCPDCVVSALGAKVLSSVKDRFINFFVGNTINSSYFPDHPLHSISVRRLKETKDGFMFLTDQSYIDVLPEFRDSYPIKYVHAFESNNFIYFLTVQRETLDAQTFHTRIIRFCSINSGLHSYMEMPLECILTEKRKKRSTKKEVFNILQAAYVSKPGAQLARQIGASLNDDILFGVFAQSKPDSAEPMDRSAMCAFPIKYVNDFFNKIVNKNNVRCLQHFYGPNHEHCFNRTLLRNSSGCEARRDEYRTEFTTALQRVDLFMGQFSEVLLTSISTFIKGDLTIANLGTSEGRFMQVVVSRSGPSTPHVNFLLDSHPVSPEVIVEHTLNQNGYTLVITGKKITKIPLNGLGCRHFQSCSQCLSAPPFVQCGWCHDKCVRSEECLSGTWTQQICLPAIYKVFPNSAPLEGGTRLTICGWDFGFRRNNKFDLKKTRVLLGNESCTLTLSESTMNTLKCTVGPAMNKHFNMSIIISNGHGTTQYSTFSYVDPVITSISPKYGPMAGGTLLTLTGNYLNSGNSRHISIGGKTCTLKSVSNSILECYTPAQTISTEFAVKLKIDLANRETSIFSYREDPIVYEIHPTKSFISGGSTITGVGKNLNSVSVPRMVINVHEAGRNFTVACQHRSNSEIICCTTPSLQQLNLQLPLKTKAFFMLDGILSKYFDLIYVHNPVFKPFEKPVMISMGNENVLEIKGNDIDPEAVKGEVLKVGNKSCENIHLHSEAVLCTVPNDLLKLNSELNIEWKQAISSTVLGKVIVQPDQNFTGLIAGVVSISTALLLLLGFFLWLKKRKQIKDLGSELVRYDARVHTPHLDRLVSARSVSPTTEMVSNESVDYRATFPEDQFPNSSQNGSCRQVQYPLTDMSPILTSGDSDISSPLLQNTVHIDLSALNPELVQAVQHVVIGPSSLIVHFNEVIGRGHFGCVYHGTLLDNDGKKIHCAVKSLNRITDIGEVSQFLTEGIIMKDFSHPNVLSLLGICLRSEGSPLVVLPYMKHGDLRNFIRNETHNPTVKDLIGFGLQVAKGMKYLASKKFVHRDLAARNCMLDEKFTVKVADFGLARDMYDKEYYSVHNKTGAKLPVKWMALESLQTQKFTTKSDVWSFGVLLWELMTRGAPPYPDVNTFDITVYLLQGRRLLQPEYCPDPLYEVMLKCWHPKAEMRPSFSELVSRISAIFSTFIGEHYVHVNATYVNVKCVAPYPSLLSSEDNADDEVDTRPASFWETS
Chain of UniProt P07948 (P07948 whole entry, looked up): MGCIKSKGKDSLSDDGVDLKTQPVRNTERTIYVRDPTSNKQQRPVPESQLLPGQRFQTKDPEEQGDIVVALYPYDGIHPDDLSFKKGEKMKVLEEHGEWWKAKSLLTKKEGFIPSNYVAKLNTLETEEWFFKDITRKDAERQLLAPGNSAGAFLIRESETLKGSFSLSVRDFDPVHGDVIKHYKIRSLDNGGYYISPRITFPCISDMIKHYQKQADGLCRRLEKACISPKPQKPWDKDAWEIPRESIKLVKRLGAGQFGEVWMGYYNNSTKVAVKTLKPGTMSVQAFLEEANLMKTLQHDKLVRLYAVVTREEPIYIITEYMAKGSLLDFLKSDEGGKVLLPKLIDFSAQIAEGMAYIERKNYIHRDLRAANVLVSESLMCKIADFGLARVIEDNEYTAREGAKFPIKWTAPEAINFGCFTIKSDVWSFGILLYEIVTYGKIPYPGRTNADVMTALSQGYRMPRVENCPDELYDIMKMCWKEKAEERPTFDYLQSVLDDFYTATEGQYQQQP

## O=C1NC(=O)C(c2ccccc2Cl)=C1Nc1cc(Cl)c(O)c(Cl)c1
[1]
  inhibition: 4.91%
[2]
  inhibition: 4.92%
[3]
  inhibition: 5.35%
[4]
  inhibition: 3.29%
[5]
  inhibition: 4.88%
[6]
  inhibition: 0.89%
[7]
  inhibition: 4.28%
[8]
  inhibition: 1.4%
[9]
  inhibition: 7.88%
[10]
  inhibition: 1.37%
[11]
  inhibition: 4.9%
[12]
  inhibition: 8.08%
[13]
  inhibition: 14.6%
[14]
  inhibition: -0.39%
[15]
  inhibition: 1.1%
[16]
  inhibition: 6.1%
[17]
  inhibition: 6.84%
[18]
  inhibition: 0.98%
[19]
  inhibition: -0.18%
[20]
  inhibition: 7.6%

## Fc1ccc(Oc2nccc(-c3c(-c4ccc(F)cc4)ncn3C3CCNCC3)n2)cc1
[1]
  inhibition: 2.49%
[2]
  inhibition: 3.83%
[3]
  inhibition: 3.17%
[4]
  inhibition: 1.4%
[5]
  inhibition: 2.26%
[6]
  inhibition: 3.57%
[8]
  inhibition: 7.6%
[9]
  inhibition: 2.64%
[10]
  inhibition: 1.5%
[11]
  inhibition: 7.6%
[12]
  inhibition: 6.7%
[13]
  inhibition: 10.6%
[14]
  inhibition: 0.7%
[15]
  inhibition: 3.02%
[16]
  inhibition: 1.38%
[17]
  inhibition: 7.05%
[18]
  inhibition: 2.18%
[19]
  inhibition: 4.43%
[20]
  inhibition: 3.81%

## COc1ccccc1C1=C(Nc2ccccc2)C(=O)NC1=O
[1]
  inhibition: 3.44%
[2]
  inhibition: 5.41%
[3]
  inhibition: 20.9%
[4]
  inhibition: 3.14%
[5]
  inhibition: 17.2%
[6]
  inhibition: 0.73%
[7]
  inhibition: 1.51%
[8]
  inhibition: 3.31%
[9]
  inhibition: 7.23%
[10]
  inhibition: 1.54%
[11]
  inhibition: 6.34%
[12]
  inhibition: 6.85%
[13]
  inhibition: 13.8%
[14]
  inhibition: 1.38%
[15]
  inhibition: 2.72%
[16]
  inhibition: 5.71%
[17]
  inhibition: 6.97%
[18]
  inhibition: -1.2%
[19]
  inhibition: 1.31%
[20]
  inhibition: 3.25%

## O=C(O)c1ccc(Oc2nccc(-c3c(-c4ccc(F)cc4)ncn3C3CCNCC3)n2)cc1
[1]
  inhibition: 4.51%
[2]
  inhibition: 3.91%
[3]
  inhibition: 4.1%
[4]
  inhibition: -0.74%
[5]
  inhibition: 1.28%
[6]
  inhibition: 0.67%
[7]
  inhibition: 10.8%
[8]
  inhibition: 2.19%
[9]
  inhibition: 1.71%
[10]
  inhibition: 1.88%
[11]
  inhibition: 8.9%
[12]
  inhibition: 6.72%
[13]
  inhibition: 11.2%
[14]
  inhibition: 2.24%
[15]
  inhibition: 2.45%
[16]
  inhibition: 4%
[17]
  inhibition: 9.13%
[18]
  inhibition: 2.78%
[19]
  inhibition: 2.76%
[20]
  inhibition: 4.49%

From ChEMBL document CHEMBL1961873, “Compounds: GSK PKIS; Assays: Nanosyn kinase panel” (2012)
